PubChem BioAssay AID504845 (National Center for Advancing Translational Sciences (NCATS), 2011)
Where “and” joins values, the source holds several entries; their conditions need not be identical. Equal entries are not always repeated. Screen size: about 390,000 compounds; about 150 (0.038%) were called active. Inconclusive results, whose numbers are uncertain, are shown with a selection of clear calls. Calls come from the whole dose curve; as a rule, active = well fitted inhibition curve with a large enough effect; inconclusive = small, poorly fitted or top-dose-only effect; inactive = no such curve, though single readings can be large or run the other way. Potencies beside an inconclusive call are fits to weak or partial responses and may not hold up.

Target: Regulator of G-protein signaling 4 (Homo sapiens) (UniProt P49798)
Experiment: Inhibitors of Regulator of G Protein Signaling (RGS) 4: qHTS; note: nearly all actives have a fitted effect of over 75% in size
Conditions: Transcreener GDP fluorescence polarization, RGS4-accelerated GTP hydrolysis; series mostly up to 114 µM; activity change, negative = inhibition: at the top concentration
In short: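 MLSMR compounds (23 nl, pin-transferred) preincubated 10 min at room temperature with a 500nM (2x) first reagent, then RGS4 at 900nM (2x) plus Transcreener GDP mix added; fluorescence polarization (620/688 nm) read before and after 90 min at 30 °C.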
% is set by controls: 0 for no effect and ±100 for the full control effect; potency is the fitted concentration of half-maximal effect; tags give direction and shape of the fitted curve.

Chain of UniProt P49798 (P49798 whole entry, looked up): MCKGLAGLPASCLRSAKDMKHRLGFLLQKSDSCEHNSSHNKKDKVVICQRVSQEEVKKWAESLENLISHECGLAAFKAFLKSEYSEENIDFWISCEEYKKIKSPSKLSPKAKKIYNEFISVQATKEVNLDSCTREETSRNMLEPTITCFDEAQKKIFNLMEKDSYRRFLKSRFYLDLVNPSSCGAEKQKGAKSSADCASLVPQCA

Compound | activity change, negative = inhibition | Potency
COc1ccc(C(=O)NC2CCCc3ccccc32)cc1[N+](=O)[O-] (stereo not given) | inactive: -14.8% | –
COc1ccc(S(=O)(=O)Nc2cccc3c2O[C@H](CN(C)S(=O)(=O)c2ccccc2)[C@@H](C)CN([C@H](C)CO)C3=O)cc1 | inactive: 5.33% | –
COc1ccc(C(=O)NCC(=O)OCC(=O)c2ccc(Cl)cc2)cc1OC | – | inconclusive: 70.8 µM [inhibitor, single point]
Clc1ccc(CNc2ccc(CNc3ncn[nH]3)cc2)c(Cl)c1 | inactive: 16.2% | –
COc1ccc2ccccc2c1/C=N/NC(=O)c1sc(N)c(C#N)c1C | – | inconclusive: 100 µM [inhibitor, partial curve, poor fit]
CCn1c(N)cc(=O)[nH]c1=S | – | inconclusive: 89.1 µM [inhibitor, single point]
Cc1ccc(CNC(=O)C2CC(c3ccccc3C(F)(F)F)=NO2)cc1 (stereo not given) | inactive: 6.1% | –
O=C(NCCc1ccccc1)C(=O)c1c[nH]c2ccccc12 | inactive: -7.21% | –
CC1(C)CC(=O)c2cc(OCC(=O)NCCCN3CCN(c4ccc(F)cc4)CC3)ccc2O1 | inactive: 4.98% | –
Cc1ccc2oc(=O)c3cc(C(=O)NCCCN4CCc5ccccc5C4)sc3c2c1 | inactive: -37.9% | –
CCOC(=O)c1c(-c2ccc(C)o2)csc1NC(=O)CSc1nncs1 | – | inconclusive: 28.2 µM [inhibitor, full curve, poor fit]
COc1ccc(CCC(=O)NCC(c2ccco2)N2CCc3ccccc32)cc1 (stereo not given) | – | inconclusive: 56.2 µM [inhibitor, partial curve, poor fit]
Clc1ccc(OCc2nn3c(C4CCCCC4)nnc3s2)cc1 | – | inconclusive: 89.1 µM [inhibitor, partial curve, poor fit]
NS(=O)(=O)c1ccc(NC(=O)/C=C/c2cccs2)cc1 | inactive: -1.42% | –
Cc1ccc(C(=O)n2ncn(C)c2=S)cc1 | – | inconclusive: 79.4 µM [inhibitor, partial curve, poor fit]
COCCNC(=O)c1cccc(OC2CCN(Cc3cccc(C(C)=O)c3)CC2)c1 | inactive: 16.7% | –
Cn1nnc2cc(C(=O)Nc3ccc(Cl)cc3)ccc21 | inactive: -48.6% | –
COc1ccc(NC(=O)C2C3C=CC(C3)C2C(=O)NCc2ccccn2)c(OC)c1 (stereo not given) | – | inconclusive: 89.1 µM [inhibitor, single point]
CCCOc1ccc(NC(=O)CC2C(=O)N(c3cccc(OC)c3)C(=O)N2Cc2cccs2)cc1 (stereo not given) | inactive: -11.4% | –
Cc1ccccc1NC(=O)CCN1CCCC1 | inactive: 12.9% | –
CC(=O)c1ccc(NC(=S)NC(=O)/C=C/c2ccc(F)cc2)cc1 | inactive: -3.72% | –
Cc1cc(C(=O)N/N=C/c2c(C)[nH]c3ccccc23)n[nH]1 | – | inconclusive: 100 µM [inhibitor, single point]
COc1ccc(-c2c(NC(=O)C(C)C)n(C)c3ccccc3c2=O)cc1 | inactive: 0.557% | –
Cc1ccccc1NC(=O)CSc1nc2ccc(NC(=O)c3cccs3)cc2s1 | inactive: -19.1% | –

Compound | activity change, negative = inhibition | Potency
COC(=O)Nc1ccc2[nH]cc(CCNC(C)=O)c2c1 | – | inconclusive: 0.947 µM [inhibitor, partial curve, poor fit]
O=S(=O)(c1ccc(=S)[nH]c1)N1CCCC1 | – | inconclusive: 112 µM [inhibitor, partial curve, poor fit]
CC(NC(=O)c1noc2c1CCCC2)c1ccccc1 (stereo not given) | – | inconclusive: 89.1 µM [inhibitor, single point]
CCN(CC)S(=O)(=O)c1cccc(C(=O)NCC2CCCCC2)c1 | – | inconclusive: 20 µM [inhibitor, full curve, poor fit]
Clc1ccc(OCCOCCNCc2ccccc2)cc1Cl | inactive: -35.1% | –
CCOC(=O)c1[nH]c2ccc(OC)cc2c1NC(=O)NC(C)C | inactive: 15.2% | –
C#CCn1c(=O)c2c(ncn2C)n(C)c1=O | – | inconclusive: 1.89 µM [inhibitor, partial curve]
CCCNS(=O)(=O)c1ccc2nc(NC(=O)c3ccc(F)cc3)sc2c1 | – | inconclusive: 28.2 µM [inhibitor, full curve, poor fit]
O=C(c1ccc(Br)cc1)N(Cc1nc2ccccc2c(=O)[nH]1)C1CCCC1 | – | inconclusive: 79.4 µM [inhibitor, single point]
O=C(OCc1cnc(Cl)s1)c1ccccc1Cl | inactive: -19.3% | –
O=c1oc2ccc(Cl)cc2cc1-c1nnc(Nc2cccc(C(F)(F)F)c2)s1 | inactive: 11.8% | –
C#CCOc1ccc(/C=C2/C(=O)ON=C2C)cc1Br | – | inconclusive: 17.8 µM [inhibitor, full curve, poor fit]
COC(=O)c1ccc(CN2CCc3ccc(NC(=O)c4ccncc4)cc3C2)cc1 | inactive: -18.9% | –
N#Cc1c(N2CCCC(O)C2)nc(N)c2c(N)nc3c(c12)CC(=O)N3C12CC3CC(CC(C3)C1)C2 (stereo not given) | – | inconclusive: 50.1 µM [inhibitor, partial curve, poor fit]
Cc1cc(C(=O)Nc2ccc(S(=O)(=O)Nc3onc(C)c3C)cc2)c(C)o1 | – | inconclusive: 20 µM [inhibitor, full curve, poor fit]
CCn1c(SCC(=O)N2CCCc3ccccc32)nnc1-c1c[nH]c2ccccc12 | inactive: -17.3% | –
CCOC(=O)Cn1c(C)cc(=O)c2ccccc21 | – | inconclusive: 89.1 µM [inhibitor, single point]
c1ccc(-c2onc(-c3ccco3)c2-c2ccc3[nH]ccc3c2)cc1 | inactive: -42.5% | –
Cc1cc(C)c2c(c1)/C(=N/NS(=O)(=O)c1ccc(Br)cc1)CCC2 | – | inconclusive: 89.1 µM [inhibitor, single point]
C/C(Cl)=C\Cn1c(O)c(N=NC(N)=S)c2cc(Br)ccc21 | – | inconclusive: 56.2 µM [inhibitor, partial curve, poor fit]
CCSc1nsc(NC(=O)Nc2cccc(F)c2)n1 | inactive: 6.39% [at 56.9 µM] | –
CCOc1ccc(CCNC(=O)CCCn2c(=O)c3cccn3c3cccnc32)cc1OCC | – | inactive and inconclusive: 89.1 µM [inhibitor, single point]
CC(C(=O)O)N1C(=O)/C(=C/C=C/c2ccco2)SC1=S (stereo not given) | – | inconclusive: 56.2 µM [inhibitor, partial curve, poor fit]
N#CC(=C(\N)Sc1ccccc1N)/C(C#N)=C(/N)Sc1ccccc1N | – | active: 9.47 µM

Compound | activity change, negative = inhibition | Potency
CNC(=S)N(C)/N=C1/C(=O)N(Cc2c(Cl)cccc2Cl)c2ccccc21 | – | inconclusive: 79.4 µM [inhibitor, partial curve, poor fit]
CCc1cc(C(=O)N2CCc3c([nH]c4ccccc34)C2c2ccc(OC)cc2F)no1 (stereo not given) | – | inconclusive: 56.2 µM [inhibitor, partial curve, poor fit]
Cc1ccc2oc(-c3cccc(NC(=S)NC(=O)/C=C/c4ccco4)c3)nc2c1 | – | inconclusive: 79.4 µM [inhibitor, partial curve, poor fit]
C/C(=C\C(=O)c1cccnc1)Nc1ccc(O)cc1 | – | inconclusive: 89.1 µM [inhibitor, single point]
CC(C)c1ccc(N2C(=O)CC(Sc3ncn[nH]3)C2=O)cc1 (stereo not given) | – | inconclusive: 89.1 µM [inhibitor, partial curve, poor fit]
CC1Cc2ccccc2N1S(=O)(=O)c1cnc[nH]1 (stereo not given) | – | inconclusive: 89.1 µM [inhibitor, single point]
O=C1ON=C(c2ccccc2)/C1=C/c1ccc(O)cc1 | – | inconclusive: 31.6 µM [inhibitor, full curve, poor fit]
NC(=O)CC[C@H](NC(=O)c1ccc(F)cc1)C(=O)OCC(=O)NCc1ccc(F)cc1 | – | inconclusive: 44.7 µM [inhibitor, partial curve, poor fit]
CC(c1ccccn1)N(Cc1ccco1)C(=S)Nc1cccc(F)c1 (stereo not given) | – | inconclusive: 100 µM [inhibitor, single point]
O=C(CSc1nc2ccc(Cl)cc2[nH]1)c1cccs1 | – | inconclusive: 89.1 µM [inhibitor, single point]
CC(C)OCCCNC(=S)N1CCC(C(=O)c2ccc(Cl)cc2)CC1 | – | inconclusive: 79.4 µM [inhibitor, partial curve, poor fit]
N#C/C(=C\c1ccc(O)c(O)c1)C(=O)NCc1ccccc1 | – | inconclusive: 23.8 µM [inhibitor, single point]
CCS(=O)(=O)N1CCC(C(=O)Oc2ccc(Cl)cc2)CC1 | – | inconclusive: 79.4 µM [inhibitor, partial curve, poor fit]
CN1CCc2c(sc(NC(=O)CS(=O)(=O)c3ccccc3)c2C(N)=O)C1 | inactive: 22.7% | –
Cc1cc(NS(=O)(=O)c2ccc(NC(=O)/C=C/c3cccc(Cl)c3)cc2)no1 | – | inconclusive: 89.1 µM [inhibitor, single point]
Cc1cccc(CSCc2ccc(C(=O)O)o2)c1 | – | inconclusive: 70.8 µM [inhibitor, single point]
CSc1cnn(Cc2ccccc2)c(=O)c1SCc1ccccc1 | – | inconclusive: 89.1 µM [inhibitor, single point]
O=C(CSc1nnc(-c2ccccc2)n1-c1ccccc1)c1cccs1 | inactive: -19% | –
O=C(O)/C=C/C(=O)NNC(=O)c1cc(-c2ccccc2)n[nH]1 | – | inconclusive: 25.1 µM [inhibitor, full curve, poor fit]
Cc1ccc(NC(=O)CN(C)Cc2c(O)ccc3ccccc23)cc1 | – | inconclusive: 39.8 µM [inhibitor, partial curve, poor fit]
CCN1C(=O)/C(=C2/C=CC=CN2C)OC1=S | – | inconclusive: 89.1 µM [inhibitor, single point]
Cc1cccc(OCCCC(=O)NC(C)C)c1 | – | inconclusive: 89.1 µM [inhibitor, single point]
